{"source": "paper PMC12820563", "about": "“FoxP3 forms a head-to-head dimer in vivo and stabilizes its multimerization on adjacent microsatellites”", "note": "The list shows a part of the results."}
{"biological_target": "T1, MBP-FoxP1dN (Mus musculus, UniProt P58462 326-579)", "T1 sequence": "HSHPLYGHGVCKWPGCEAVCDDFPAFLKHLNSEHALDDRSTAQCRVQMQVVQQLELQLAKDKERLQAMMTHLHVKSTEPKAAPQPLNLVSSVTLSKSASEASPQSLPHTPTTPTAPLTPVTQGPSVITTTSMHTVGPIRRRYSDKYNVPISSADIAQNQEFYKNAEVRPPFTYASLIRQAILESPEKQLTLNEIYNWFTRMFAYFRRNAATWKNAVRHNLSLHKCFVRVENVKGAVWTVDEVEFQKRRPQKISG", "experiment": "PD-seq (MBP pull-down with sequencing); 20 mM Tris-HCl pH 7.5, 100 mM NaCl, 1.5 mM MgCl2, 0.4 uM protein, 0.1 uM dsDNA library, 30 min, room temperature, amylose pull-down; high values mean tight binding", "settings": "protein: recombinant; tags: His6-MBP; chain copies: 2; dsDNA, one strand shown", "outline": "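His6-MBP-tagged mouse FoxP3 or FoxP1 fragment lacking the N-terminus, expressed in E. coli, was mixed at 0.4 µM with 0.1 µM Klenow-filled double-stranded degenerate DNA library. Incubation was 30 min at room temperature in Tris pH 7.5 buffer with NaCl and MgCl2. Complexes were caught on amylose resin and washed three times; DNA was released with proteinase K, PCR-barcoded and Illumina-sequenced. Binding is reads-per-million enrichment, pull-down over input, with replicates pooled.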"}
{"sequence": "GATGATTGTTCTCCCAGCTGATGAATTACAAGTGTCGAGTAAACAAATTTTCCTAATCTTTCTGTTCAAGCGCCATCTAC", "binding signal": "1.27 RPM ratio (pull-down/input)"}
{"sequence": "GATGATTGTTCTCCCAGCTGATGAATTGTAAGATTCGAGTAAACAAATTTTCCTAATCTTTCTGTTCAAGCGCCATCTAC", "binding signal": "0.971 RPM ratio (pull-down/input)"}
{"sequence": "GATGATTGTTCTCCCAGCTGATGAATTGTAGTTTTCGAGTAAACAAATTTTCCTAATCTTTCTGTTCAAGCGCCATCTAC", "binding signal": "1.43 RPM ratio (pull-down/input)"}
{"sequence": "GATGATTGTTCTCCCAGCTGATGAATTACAATTGTCGAGTAAACAAATTTTCCTAATCTTTCTGTTCAAGCGCCATCTAC", "binding signal": "1.4 RPM ratio (pull-down/input)"}
{"sequence": "GATGATTGTTCTCCCAGCTGATGAATTTCTTAGTTCGAGTAAACAAATTTTCCTAATCTTTCTGTTCAAGCGCCATCTAC", "binding signal": "0.903 RPM ratio (pull-down/input)"}
{"sequence": "GATGATTGTTCTCCCAGCTGATGAATTCATTGGTTCGAGTAAACAAATTTTCCTAATCTTTCTGTTCAAGCGCCATCTAC", "binding signal": "0.877 RPM ratio (pull-down/input)"}
{"sequence": "GATGATTGTTCTCCCAGCTGATGAATTAGCAGTGTCGAGTAAACAAATTTTCCTAATCTTTCTGTTCAAGCGCCATCTAC", "binding signal": "0.94 RPM ratio (pull-down/input)"}
{"sequence": "GATGATTGTTCTCCCAGCTGATGAATTAACGCAGTCGAGTAAACAAATTTTCCTAATCTTTCTGTTCAAGCGCCATCTAC", "binding signal": "0.975 RPM ratio (pull-down/input)"}
{"sequence": "GATGATTGTTCTCCCAGCTGATGAATTTTGTGAATCGAGTAAACAAATTTTCCTAATCTTTCTGTTCAAGCGCCATCTAC", "binding signal": "1.06 RPM ratio (pull-down/input)"}
{"sequence": "GATGATTGTTCTCCCAGCTGATGAATTTCTTTGTTCGAGTAAACAAATTTTCCTAATCTTTCTGTTCAAGCGCCATCTAC", "binding signal": "0.994 RPM ratio (pull-down/input)"}
{"sequence": "GATGATTGTTCTCCCAGCTGATGAATTAGTCTTTTCGAGTAAACAAATTTTCCTAATCTTTCTGTTCAAGCGCCATCTAC", "binding signal": "0.951 RPM ratio (pull-down/input)"}
{"sequence": "GATGATTGTTCTCCCAGCTGATGAATTACCGCGGTCGAGTAAACAAATTTTCCTAATCTTTCTGTTCAAGCGCCATCTAC", "binding signal": "0.87 RPM ratio (pull-down/input)"}
{"sequence": "GATGATTGTTCTCCCAGCTGATGAATTCTTCGGCTCGAGTAAACAAATTTTCCTAATCTTTCTGTTCAAGCGCCATCTAC", "binding signal": "0.765 RPM ratio (pull-down/input)"}
{"sequence": "GATGATTGTTCTCCCAGCTGATGAATTCAAAACGTCGAGTAAACAAATTTTCCTAATCTTTCTGTTCAAGCGCCATCTAC", "binding signal": "1.01 RPM ratio (pull-down/input)"}
{"sequence": "GATGATTGTTCTCCCAGCTGATGAATTTCTGTTGTCGAGTAAACAAATTTTCCTAATCTTTCTGTTCAAGCGCCATCTAC", "binding signal": "2.16 RPM ratio (pull-down/input)"}
{"sequence": "GATGATTGTTCTCCCAGCTGATGAATTTAGGTGGTCGAGTAAACAAATTTTCCTAATCTTTCTGTTCAAGCGCCATCTAC", "binding signal": "0.899 RPM ratio (pull-down/input)"}
{"sequence": "GATGATTGTTCTCCCAGCTGATGAATTAGCAGATTCGAGTAAACAAATTTTCCTAATCTTTCTGTTCAAGCGCCATCTAC", "binding signal": "0.903 RPM ratio (pull-down/input)"}
{"sequence": "GATGATTGTTCTCCCAGCTGATGAATTCAGTTACTCGAGTAAACAAATTTTCCTAATCTTTCTGTTCAAGCGCCATCTAC", "binding signal": "0.896 RPM ratio (pull-down/input)"}
{"sequence": "GATGATTGTTCTCCCAGCTGATGAATTCTGATTATCGAGTAAACAAATTTTCCTAATCTTTCTGTTCAAGCGCCATCTAC", "binding signal": "1.37 RPM ratio (pull-down/input)"}
{"sequence": "GATGATTGTTCTCCCAGCTGATGAATTAAGATGTTCGAGTAAACAAATTTTCCTAATCTTTCTGTTCAAGCGCCATCTAC", "binding signal": "0.935 RPM ratio (pull-down/input)"}
{"sequence": "GATGATTGTTCTCCCAGCTGATGAATTTCCCAGCTCGAGTAAACAAATTTTCCTAATCTTTCTGTTCAAGCGCCATCTAC", "binding signal": "0.875 RPM ratio (pull-down/input)"}
{"sequence": "GATGATTGTTCTCCCAGCTGATGAATTGAGGCTCTCGAGTAAACAAATTTTCCTAATCTTTCTGTTCAAGCGCCATCTAC", "binding signal": "0.818 RPM ratio (pull-down/input)"}
{"sequence": "GATGATTGTTCTCCCAGCTGATGAATTAAAGGGGTCGAGTAAACAAATTTTCCTAATCTTTCTGTTCAAGCGCCATCTAC", "binding signal": "0.816 RPM ratio (pull-down/input)"}
{"sequence": "GATGATTGTTCTCCCAGCTGATGAATTTGCCACTTCGAGTAAACAAATTTTCCTAATCTTTCTGTTCAAGCGCCATCTAC", "binding signal": "1.11 RPM ratio (pull-down/input)"}
{"sequence": "GATGATTGTTCTCCCAGCTGATGAATTTTATGATTCGAGTAAACAAATTTTCCTAATCTTTCTGTTCAAGCGCCATCTAC", "binding signal": "1.15 RPM ratio (pull-down/input)"}
{"sequence": "GATGATTGTTCTCCCAGCTGATGAATTGTCGTAGTCGAGTAAACAAATTTTCCTAATCTTTCTGTTCAAGCGCCATCTAC", "binding signal": "1.02 RPM ratio (pull-down/input)"}
{"sequence": "GATGATTGTTCTCCCAGCTGATGAATTCTGGACGTCGAGTAAACAAATTTTCCTAATCTTTCTGTTCAAGCGCCATCTAC", "binding signal": "0.779 RPM ratio (pull-down/input)"}
{"sequence": "GATGATTGTTCTCCCAGCTGATGAATTATGGGATTCGAGTAAACAAATTTTCCTAATCTTTCTGTTCAAGCGCCATCTAC", "binding signal": "0.923 RPM ratio (pull-down/input)"}
{"sequence": "GATGATTGTTCTCCCAGCTGATGAATTACGGGCGTCGAGTAAACAAATTTTCCTAATCTTTCTGTTCAAGCGCCATCTAC", "binding signal": "0.931 RPM ratio (pull-down/input)"}
{"sequence": "GATGATTGTTCTCCCAGCTGATGAATTTCCAGTCTCGAGTAAACAAATTTTCCTAATCTTTCTGTTCAAGCGCCATCTAC", "binding signal": "0.762 RPM ratio (pull-down/input)"}
{"sequence": "GATGATTGTTCTCCCAGCTGATGAATTCGTTGTTTCGAGTAAACAAATTTTCCTAATCTTTCTGTTCAAGCGCCATCTAC", "binding signal": "1.22 RPM ratio (pull-down/input)"}
{"sequence": "GATGATTGTTCTCCCAGCTGATGAATTCTCTCTATCGAGTAAACAAATTTTCCTAATCTTTCTGTTCAAGCGCCATCTAC", "binding signal": "0.939 RPM ratio (pull-down/input)"}
